# Data from the supplement of paper PMC8728848.
# The list shows a part of the results.
# B1: mCC1-Hexahis-Precomplexed (Mus musculus), P31809 (protein)
# chain: MELASAHLHKGQVPWGGLLLTASLLASWSPATTAEVTIEAVPPQVAEDNNVLLLVHNLPLALGAFAWYKGNTTAIDKEIARFVPNSNMNFTGQAYSGREIIYSNGSLLFQMITMKDMGVYTLDMTDENYRRTQATVRFHVHPILLKPNITSNNSNPVEGDDSVSLTCDSYTDPDNINYLWSRNGESLSEGDRLKLSEGNRTLTLLNVTRNDTGPYVCETRNPVSVNRSDPFSLNIIYGPDTPIISPSDIYLHPGSNLNLSCHAASNPPAQYFWLINEKPHASSQELFIPNITTNNSGTYTCFVNNSVTGLSRTTVKNITVLEPVTQPFLQVTNTTVKELDSVTLTCLSNDIGANIQWLFNSQSLQLTERMTLSQNNSILRIDPIKREDAGEYQCEISNPVSVRRSNSIKLDIIFDPTQGGLSDGHHHHHH
# Tests used:
# Assay in all cases: glycan array binding signal (z-score within array); higher = stronger binding
# Settings in all cases: glycan notation: IUPAC condensed, linker removed
# [1] = biological target: Neu5Ac(a2-3)Gal(b1-3)GalNAc
# Method in brief: (§1)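 Glycan array data came from 3228 arrays in the Consortium for Functional Glycomics database, and only arrays with an available protein sequence were kept. Glycan names were put into IUPAC-condensed notation, and columns mapping to the same glycan were averaged. The binding signal is a within-array Z-score, averaged across arrays of one protein sequence run at different concentrations or buffers and across linkers. A negative Z-score can be read as non-binding.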
# [2] = biological target: Neu5Ac(a2-3)Gal(b1-3)GalNAc(b1-3)Gal(a1-4)Gal(b1-4)Glc
# Method in brief: as §1
# [3] = biological target: Neu5Ac(a2-3)Gal(b1-3)GalNAc(b1-4)[Neu5Ac(a2-3)]Gal(b1-4)Glc
# Method in brief: as §1
# [4] = biological target: Neu5Ac(a2-3)Gal(b1-3)GalNAc(b1-4)[Neu5Ac(a2-8)Neu5Ac(a2-3)]Gal(b1-4)Glc
# Method in brief: as §1
# [5] = biological target: Neu5Ac(a2-3)Gal(b1-3)GalNAc6S
# Method in brief: as §1
# [6] = biological target: Neu5Ac(a2-3)Gal(b1-3)GlcNAc
# Method in brief: as §1
# [7] = biological target: Neu5Ac(a2-3)Gal(b1-3)GlcNAc(b1-2)Man
# Method in brief: as §1
# [8] = biological target: Neu5Ac(a2-3)Gal(b1-3)GlcNAc(b1-2)Man(a1-3)[GlcNAc(b1-4)][Neu5Ac(a2-3)Gal(b1-3)GlcNAc(b1-2)Man(a1-6)]Man(b1-4)GlcNAc(b1-4)GlcNAc
# Method in brief: as §1
# [9] = biological target: Neu5Ac(a2-3)Gal(b1-3)GlcNAc(b1-2)Man(a1-3)[Neu5Ac(a2-3)Gal(b1-3)GlcNAc(b1-2)Man(a1-6)]Man(b1-4)GlcNAc(b1-4)GlcNAc
# Method in brief: as §1
# [10] = biological target: Neu5Ac(a2-3)Gal(b1-3)GlcNAc(b1-3)Gal(b1-3)GlcNAc
# Method in brief: as §1
# [11] = biological target: Neu5Ac(a2-3)Gal(b1-3)GlcNAc(b1-3)Gal(b1-4)GlcNAc
# Method in brief: as §1
# [12] = biological target: Neu5Ac(a2-3)Gal(b1-3)GlcNAc(b1-3)GalNAc
# Method in brief: as §1
# [13] = biological target: Neu5Ac(a2-3)Gal(b1-3)GlcNAc(b1-4)Gal(b1-4)Glc
# Method in brief: as §1
# [14] = biological target: Neu5Ac(a2-3)Gal(b1-3)GlcNAc(b1-6)GalNAc
# Method in brief: as §1
# [15] = biological target: Neu5Ac(a2-3)Gal(b1-3)GlcNAc6S
# Method in brief: as §1
# [16] = biological target: Neu5Ac(a2-3)Gal(b1-3)[Fuc(a1-4)]GlcNAc
# Method in brief: as §1
# [17] = biological target: Neu5Ac(a2-3)Gal(b1-3)[Fuc(a1-4)]GlcNAc(b1-3)Gal(b1-3)[Fuc(a1-4)]GlcNAc
# Method in brief: as §1
# [18] = biological target: Neu5Ac(a2-3)Gal(b1-3)[Fuc(a1-4)]GlcNAc(b1-3)Gal(b1-4)[Fuc(a1-3)]GlcNAc
# Method in brief: as §1
# [19] = biological target: Neu5Ac(a2-3)Gal(b1-3)[GlcNAc(b1-6)]GalNAc
# Method in brief: as §1
# [20] = biological target: Neu5Ac(a2-3)Gal(b1-3)[Neu5Ac(a2-6)]GalNAc
# Method in brief: as §1
# [21] = biological target: Neu5Ac(a2-3)Gal(b1-3)[Neu5Ac(a2-6)]GlcNAc(b1-3)[Fuc(a1-3)[Gal(b1-4)]GlcNAc(b1-6)]Gal(b1-4)Glc
# Method in brief: as §1
# [22] = biological target: Neu5Ac(a2-3)Gal(b1-3)]Neu5Ac(a2-3)Gal(b1-4)]GlcNAc
# Method in brief: as §1
# Neu5Ac(a2-3)Gal(b1-4)Glc = biological target: Neu5Ac(a2-3)Gal(b1-4)Glc
# Method in brief: as §1
# [23] = biological target: Neu5Ac(a2-3)Gal(b1-4)GlcNAc
# Method in brief: as §1
# [24] = biological target: Neu5Ac(a2-3)Gal(b1-4)GlcNAc(b1-2)Man
# Method in brief: as §1
# [25] = biological target: Neu5Ac(a2-3)Gal(b1-4)GlcNAc(b1-2)Man(a1-3)[GlcNAc(b1-4)][Neu5Ac(a2-3)Gal(b1-4)GlcNAc(b1-2)Man(a1-6)]Man(b1-4)GlcNAc(b1-4)GlcNAc
# Method in brief: as §1
# [26] = biological target: Neu5Ac(a2-3)Gal(b1-4)GlcNAc(b1-2)Man(a1-3)[Neu5Ac(a2-3)Gal(b1-4)GlcNAc(b1-2)Man(a1-6)]Man(b1-4)GlcNAc(b1-4)GlcNAc
# Method in brief: as §1
# [27] = biological target: Neu5Ac(a2-3)Gal(b1-4)GlcNAc(b1-2)Man(a1-3)[Neu5Ac(a2-3)Gal(b1-4)GlcNAc(b1-2)Man(a1-6)]Man(b1-4)GlcNAc(b1-4)[Fuc(a1-6)]GlcNAc
# Method in brief: as §1
# [28] = biological target: Neu5Ac(a2-3)Gal(b1-4)GlcNAc(b1-2)Man(a1-3)[Neu5Ac(a2-6)Gal(b1-4)GlcNAc(b1-2)Man(a1-6)]Man(b1-4)GlcNAc(b1-4)GlcNAc
# Method in brief: as §1
# [29] = biological target: Neu5Ac(a2-3)Gal(b1-4)GlcNAc(b1-2)[Neu5Ac(a2-3)Gal(b1-4)GlcNAc(b1-4)]Man(a1-3)[GlcNAc(b1-4)][Neu5Ac(a2-3)Gal(b1-4)GlcNAc(b1-2)[Neu5Ac(a2-3)Gal(b1-4)GlcNAc(b1-6)]Man(a1-6)]Man(b1-4)GlcNAc(b1-4)GlcNAc
# Method in brief: as §1
# [30] = biological target: Neu5Ac(a2-3)Gal(b1-4)GlcNAc(b1-2)[Neu5Ac(a2-3)Gal(b1-4)GlcNAc(b1-4)]Man(a1-3)[GlcNAc(b1-4)][Neu5Ac(a2-3)Gal(b1-4)GlcNAc(b1-4)Man(a1-6)]Man(b1-4)GlcNAc(b1-4)GlcNAc
# Method in brief: as §1
# [31] = biological target: Neu5Ac(a2-3)Gal(b1-4)GlcNAc(b1-2)[Neu5Ac(a2-3)Gal(b1-4)GlcNAc(b1-6)]Man(a1-6)[Neu5Ac(a2-3)Gal(b1-4)GlcNAc(b1-2)Man(a1-3)]Man(b1-4)GlcNAc(b1-4)GlcNAc
# Method in brief: as §1
# [32] = biological target: Neu5Ac(a2-3)Gal(b1-4)GlcNAc(b1-2)[Neu5Ac(a2-3)Gal(b1-4)GlcNAc(b1-6)]Man(a1-6)[Neu5Ac(a2-3)Gal(b1-4)GlcNAc(b1-2)Man(a1-3)][GlcNAc(b1-4)]Man(b1-4)GlcNAc(b1-4)GlcNAc
# Method in brief: as §1
# [33] = biological target: Neu5Ac(a2-3)Gal(b1-4)GlcNAc(b1-3)Gal
# Method in brief: as §1
# [34] = biological target: Neu5Ac(a2-3)Gal(b1-4)GlcNAc(b1-3)Gal(b1-3)GlcNAc
# Method in brief: as §1
# [35] = biological target: Neu5Ac(a2-3)Gal(b1-4)GlcNAc(b1-3)Gal(b1-4)GlcNAc
# Method in brief: as §1
# [36] = biological target: Neu5Ac(a2-3)Gal(b1-4)GlcNAc(b1-3)Gal(b1-4)GlcNAc(b1-2)Man(a1-3)[Neu5Ac(a2-3)Gal(b1-4)GlcNAc(b1-3)Gal(b1-4)GlcNAc(b1-2)Man(a1-6)]Man(b1-4)GlcNAc(b1-4)GlcNAc
# Method in brief: as §1
binder,measurement,setting,value
B1,glycan array binding signal (z-score),[1],-0.136
same,glycan array binding signal (z-score),[2],0.113
same,glycan array binding signal (z-score),[3],-0.082
same,glycan array binding signal (z-score),[4],-0.182
same,glycan array binding signal (z-score),[5],-0.203
same,glycan array binding signal (z-score),[6],-0.041
same,glycan array binding signal (z-score),[7],-0.218
same,glycan array binding signal (z-score),[8],-0.017
same,glycan array binding signal (z-score),[9],0.199
same,glycan array binding signal (z-score),[10],-0.117
same,glycan array binding signal (z-score),[11],-0.162
same,glycan array binding signal (z-score),[12],0.321
same,glycan array binding signal (z-score),[13],-0.198
same,glycan array binding signal (z-score),[14],-0.291
same,glycan array binding signal (z-score),[15],1.47
same,glycan array binding signal (z-score),[16],-0.285
same,glycan array binding signal (z-score),[17],-0.219
same,glycan array binding signal (z-score),[18],-0.183
same,glycan array binding signal (z-score),[19],-0.253
same,glycan array binding signal (z-score),[20],-0.167
same,glycan array binding signal (z-score),[21],-0.19
same,glycan array binding signal (z-score),[22],-0.25
same,glycan array binding signal (z-score),Neu5Ac(a2-3)Gal(b1-4)Glc,0.134
same,glycan array binding signal (z-score),[23],-0.23
same,glycan array binding signal (z-score),[24],-0.03
same,glycan array binding signal (z-score),[25],0.032
same,glycan array binding signal (z-score),[26],-0.174
same,glycan array binding signal (z-score),[27],-0.191
same,glycan array binding signal (z-score),[28],-0.184
same,glycan array binding signal (z-score),[29],-0.244
same,glycan array binding signal (z-score),[30],-0.283
same,glycan array binding signal (z-score),[31],-0.111
same,glycan array binding signal (z-score),[32],-0.045
same,glycan array binding signal (z-score),[33],-0.226
same,glycan array binding signal (z-score),[34],-0.178
same,glycan array binding signal (z-score),[35],-0.236
same,glycan array binding signal (z-score),[36],7.65
